# Test results published in PubChem BioAssay (Tox21).
# Where “and” joins values, the source holds several entries; their conditions need not be identical. Identical values can stand only once. This list was built around the results that the source calls inconclusive (neither active nor inactive); the mix of calls is not that of the screen. For some of these results: Potencies beside an inconclusive call are fits to weak or partial responses and may not hold up. Calls of active or inactive are those of the source. Unless noted, the call rests on the fitted dose curve; in most records, active means well fitted curve in the direction sought with a large enough effect in the repeat runs; inconclusive means weak or mixed curves; inactive means no such curve, though single readings can be large; an effect the other way counts as inactive or inconclusive.
# What was measured:
# [1] = qHTS assay for small molecule agonists of the antioxidant response element (ARE) signaling pathway (AID 743202; active means well fitted activation curve with a large enough effect in the signal ratio in the repeat runs, not every such curve was filed as active; inconclusive means weak or mixed curves, or effect the other way; inactive means no such curve, though single readings can be large or run the other way; the % refers to the signal ratio; on activation: on the % scale 0 is the no-effect control and ±100 the full control effect); details: HepG2 ARE-bla reporter, beta-lactamase FRET, 16 h; activation: at 73.3 µM (top of the series) unless noted
# Method in brief: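 HepG2 ARE-bla cells; 16 h treatment at 37 C; FRET-based beta-lactamase fluorescence read after 2 h substrate incubation at room temperature.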
# [2] = qHTS assay for small molecule activators of the heat shock response signaling pathway (AID 743210; active means well fitted activation curve with a large enough effect in the signal ratio in the repeat runs, with a control signal flat, not every such curve was filed as active; inconclusive means weak or mixed curves; the % refers to the signal ratio); details: HeLa HSE-bla reporter, beta-lactamase ratio, 5 h; activation: at 62.6 µM (top of the series) unless noted
# Method in brief: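 Following overnight attachment, HSE-bla HeLa cells received test compounds for 5 h at 37 C; beta-lactamase activity was then detected via FRET substrate fluorescence.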
# [3] = molecular target: Peroxisome proliferator-activated receptor delta (Homo sapiens) (UniProt Q03181); assay: qHTS assay to identify small molecule antagonists of the peroxisome proliferator-activated receptor delta (PPARd) signaling pathway (AID 743215; active means well fitted inhibition curve with a large enough effect in the signal ratio in the repeat runs, not every such curve was filed as active; inconclusive means weak or mixed curves, or effect the other way; inactive means no such curve, though single readings can be large or run the other way; the % refers to the signal ratio;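 further: cells stimulated with agonist L165041 at 300 nM final during compound exposure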); details: HEK293H PPARd-UAS-bla, beta-lactamase FRET ratio, antagonist, 17 h; ratio activity, negative = inhibition: at 62 µM (top of the series) unless noted
# Sequence of UniProt Q03181 (Q03181 whole entry, looked up): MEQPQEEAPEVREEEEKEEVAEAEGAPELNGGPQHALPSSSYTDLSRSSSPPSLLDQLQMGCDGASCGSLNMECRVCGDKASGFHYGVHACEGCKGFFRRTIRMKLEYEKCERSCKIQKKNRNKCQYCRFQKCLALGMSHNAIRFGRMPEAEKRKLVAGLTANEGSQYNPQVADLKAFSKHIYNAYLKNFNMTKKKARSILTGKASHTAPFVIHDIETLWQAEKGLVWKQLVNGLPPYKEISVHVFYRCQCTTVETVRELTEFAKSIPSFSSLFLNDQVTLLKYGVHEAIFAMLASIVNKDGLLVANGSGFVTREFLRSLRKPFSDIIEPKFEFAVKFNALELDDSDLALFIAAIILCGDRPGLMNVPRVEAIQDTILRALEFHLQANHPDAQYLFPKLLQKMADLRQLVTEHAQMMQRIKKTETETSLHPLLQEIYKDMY
# Method in brief: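 Cells: HEK293H with a UAS-driven beta-lactamase reporter responsive to PPARd. Compounds were co-added with L165041 (300 nM, final) and incubated 17 h at 37 C before a 2 h room-temperature FRET substrate step and fluorescence reading.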
# [4] = molecular target: Bile acid receptor (Homo sapiens) (UniProt Q96RI1); assay: qHTS assay to identify small molecule antagonists of the farnesoid-X-receptor (FXR) signaling pathway (AID 743217; active means well fitted inhibition curve with a large enough effect in the signal ratio in the repeat runs, not every such curve was filed as active; inconclusive means weak or mixed curves, or effect the other way; inactive means no such curve, though single readings can be large or run the other way; the % refers to the signal ratio; on activity change, negative = inhibition: on the % scale 0 is the no-effect control and ±100 the full control effect); details: HEK293T FXR-UAS-bla, beta-lactamase ratio, CDCA-stimulated, 16 h; activity change, negative = inhibition: at 62.6 µM (top of the series) unless noted
# Sequence of UniProt Q96RI1 (Q96RI1 whole entry, looked up): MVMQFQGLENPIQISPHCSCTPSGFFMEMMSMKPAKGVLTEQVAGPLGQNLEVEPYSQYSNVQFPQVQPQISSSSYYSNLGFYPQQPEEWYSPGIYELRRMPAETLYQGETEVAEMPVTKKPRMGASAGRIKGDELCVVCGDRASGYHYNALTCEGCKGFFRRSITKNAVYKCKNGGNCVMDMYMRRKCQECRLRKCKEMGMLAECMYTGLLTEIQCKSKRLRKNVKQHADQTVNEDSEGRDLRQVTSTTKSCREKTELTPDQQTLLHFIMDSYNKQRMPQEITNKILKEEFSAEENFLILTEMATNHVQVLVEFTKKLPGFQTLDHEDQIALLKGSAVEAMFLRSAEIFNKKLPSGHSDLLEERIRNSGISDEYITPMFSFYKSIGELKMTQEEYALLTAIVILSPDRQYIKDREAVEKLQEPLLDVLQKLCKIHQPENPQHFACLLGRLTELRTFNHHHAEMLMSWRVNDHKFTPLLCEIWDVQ
# Method in brief: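 Cells carrying a UAS-driven beta-lactamase reporter (GeneBLAzer FXR-UAS-bla HEK 293T) were plated and rested 5 h at 37 °C. Compounds in DMSO were added alongside chenodeoxycholic acid agonist at 50 uM final and left 16 h at 37 °C before FRET substrate readout.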
# [5] = molecular target: Peroxisome proliferator-activated receptor delta (Homo sapiens) (UniProt Q03181); assay: qHTS assay to identify small molecule agonists of the peroxisome proliferator-activated receptor delta (PPARd) signaling pathway (AID 743212; calls by dose curve; on activation: on the % scale 0 is the no-effect control and ±100 the full control effect); details: HEK293H PPARd-UAS-bla, beta-lactamase FRET ratio, 17 h; activation: at 62.6 µM (top of the series) unless noted
# Method in brief: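 Tox21 library screened in GeneBLAzer PPARd UAS-bla HEK293H cells. After compound treatment at 37 C, a FRET-based beta-lactamase substrate was applied for 2 h and fluorescence recorded.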
# [6] = molecular target: Vitamin D3 receptor (Homo sapiens) (UniProt P11473); assay: qHTS assay to identify small molecule agonists of the vitamin D receptor (VDR) signaling pathway (AID 743222; calls by dose curve; on activation: on the % scale 0 is the no-effect control and ±100 the full control effect); details: HEK293T VDR-UAS-bla, beta-lactamase FRET ratio, 16 h; activation: at 63.5 µM (top of the series) unless noted
# Sequence of UniProt P11473 (P11473 whole entry, looked up): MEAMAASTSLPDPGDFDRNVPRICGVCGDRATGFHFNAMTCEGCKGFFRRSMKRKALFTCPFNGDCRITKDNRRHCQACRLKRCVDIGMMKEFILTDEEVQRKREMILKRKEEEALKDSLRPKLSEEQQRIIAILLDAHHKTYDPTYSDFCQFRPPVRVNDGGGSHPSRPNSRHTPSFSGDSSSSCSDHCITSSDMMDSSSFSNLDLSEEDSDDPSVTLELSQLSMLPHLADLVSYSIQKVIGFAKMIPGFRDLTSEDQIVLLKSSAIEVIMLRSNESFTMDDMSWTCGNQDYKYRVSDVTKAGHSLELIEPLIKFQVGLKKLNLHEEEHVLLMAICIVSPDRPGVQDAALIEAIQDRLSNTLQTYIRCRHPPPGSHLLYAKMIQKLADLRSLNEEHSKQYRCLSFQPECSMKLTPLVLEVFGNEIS
# Method in brief: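 Cells carrying a VDR-driven beta-lactamase reporter are seeded at 2,000 per well and rested 4 h. Compounds in DMSO are added for 16 h at 37C, and FRET substrate fluorescence is measured after 2 h at room temperature.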
# [7] = molecular target: Vitamin D3 receptor (Homo sapiens) (UniProt P11473); assay: qHTS assay to identify small molecule antagonists of the vitamin D receptor (VDR) signaling pathway (AID 743223; active means well fitted inhibition curve with a large enough effect in the signal ratio in the repeat runs, not every such curve was filed as active; inconclusive means weak or mixed curves, or effect the other way; inactive means no such curve, though single readings can be large or run the other way; the % refers to the signal ratio); details: VDR-UAS-bla HEK293T, beta-lactamase FRET ratio, 16 h
# Method in brief: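 Cells carrying a VDR-driven beta-lactamase reporter (VDR-bla) were co-treated with compound and 3 nM final 1alpha,25-dihydroxyvitamin D3 for 16 h at 37C; reporter activity was measured as FRET substrate fluorescence after 2 h at room temperature.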
# [8] = qHTS assay to identify small molecule agonists of the vitamin D receptor (VDR) signaling pathway - cell viability counter screen (AID 743224); details: VDR-bla HEK293T viability, CellTiter-Glo luminescence, 16 h; activity change, negative = cytotoxicity: at 62.6 µM (top of the series); further: nearly all actives have a fitted effect of over 50% in size
# Method in brief: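 Cells: VDR-bla, 2,000/well, settled 4 h. Treatment: compounds in DMSO, 16 h, 37C/5% CO2. Readout: CellTiter-Glo luminescence after 30 min RT.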
# [9] = qHTS assay to identify small molecule antagonists of the vitamin D receptor (VDR) signaling pathway - cell viability counter screen (AID 743225); details: VDR-bla HEK293T viability, CellTiter-Glo luminescence, 16 h; viability change, negative = cytotoxic: at 61 µM (top of the series) unless noted; further: nearly all actives have a fitted effect of over 50% in size
# Method in brief: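 HEK293T VDR-bla; cpd + 1a,25-(OH)2D3 3 nM final, 16 h 37C/5% CO2; B/G FRET substrate 2 h RT; then CellTiter-Glo 30 min RT, luminescence.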
# [10] = qHTS assay to identify small molecule antagonists of the peroxisome proliferator-activated receptor delta (PPARd) signaling pathway - cell viability counter screen (AID 743213); details: PPARd-bla HEK293H viability, CellTiter-Glo luminescence, 17 h; viability change, negative = cytotoxic: at 62 µM (top of the series) unless noted; further: nearly all actives have a fitted effect of over 50% in size
# Method in brief: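 Luminescence from CellTiter-Glo, added after the bla read and incubated 30 min at room temperature, gives viability of HEK293H PPARd-bla cells exposed to compounds for 17 h at 37 C with 300 nM L165041.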
# [11] = qHTS assay to identify small molecule agonists of the peroxisome proliferator-activated receptor delta (PPARd) signaling pathway - cell viability counter screen (AID 743211); details: PPARd-bla HEK293H viability, CellTiter-Glo luminescence, 17 h; activity change, negative = cytotoxicity: at 62.6 µM (top of the series); further: nearly all actives have a fitted effect of over 55% in size
# Method in brief: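 Counter screen for cytotoxicity run in parallel with the PPARd reporter screen. Beta-lactamase reporter HEK293H cells exposed to compounds 17 h; ATP-based CellTiter-Glo luminescence quantified viability.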
# [12] = qHTS assay to identify small molecule antagonists of the farnesoid-X-receptor (FXR) signaling pathway - cell viability counter screen (AID 743221; active means well fitted cell-killing curve with a large enough effect in the repeat runs, not every such curve was filed as active; inconclusive means weak or mixed curves, or effect the other way; inactive means no such curve, though single readings can be large or run the other way; further: nearly all actives have a fitted effect of over 50% in size); details: FXR-bla HEK293T viability, CellTiter-Glo luminescence, 16 h; activity change, negative = cytotoxicity: at 62.6 µM (top of the series) unless noted
# Method in brief: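 Multiplexed counter screen: viability of FXR-bla HEK 293T cells under agonist stimulation by chenodeoxycholic acid (50 uM, final) and test compound for 16 h at 37 C, measured by CellTiter-Glo luminescence in the reporter wells.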
# [13] = qHTS assay to identify small molecule agonists of the farnesoid-X-receptor (FXR) signaling pathway - cell viability counter screen (AID 743218); details: FXR-bla HEK293T viability, CellTiter-Glo luminescence, 16 h; viability change, negative = cytotoxic: at 62.6 µM (top of the series) unless noted; further: nearly all actives have a fitted effect of over 45% in size
# Method in brief: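 Cells were seeded, left 5 h at 37 C and 5% CO2, then dosed with compound in DMSO for 16 h. After the beta-lactamase FRET read, CellTiter-Glo was added and luminescence measured 30 min later.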
# [14] = molecular target: Bile acid receptor (Homo sapiens) (UniProt Q96RI1); assay: qHTS assay to identify small molecule agonists of the farnesoid-X-receptor (FXR) signaling pathway (AID 743220; active means well fitted activation curve with a large enough effect in the signal ratio in the repeat runs, not every such curve was filed as active; inconclusive means weak or mixed curves, or effect the other way; the % refers to the signal ratio); details: HEK293T FXR-UAS-bla, beta-lactamase FRET ratio, 16 h; activation: at 62.6 µM (top of the series)
# Method in brief: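 FXR-UAS-bla HEK 293T cells carrying a UAS-driven beta-lactamase reporter were plated for 5 h at 37C/5% CO2, then exposed to DMSO-dissolved Tox21 10K compounds for 16 h at 37C. A LiveBLAzer B/G FRET substrate was loaded for 2 h at room temperature before fluorescence reading.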
# [15] = activity change, negative = inhibition: at 61 µM (top of the series) unless noted
# Potency means the concentration at half of the fitted maximal effect; tags describe the fitted curve by direction and shape or compound fluorescence and quenching.
smiles,measurement,setting,value
O=C(Nc1ccccc1)c1cc([N+](=O)[O-])ccc1Cl,Potency,[1],active: 7.7 µM
same,Potency,[2],inconclusive: 46.2 µM
same,Potency,[3],"inconclusive: 13.8 µM [rising, full curve, poor fit]"
same,"activity change, negative = inhibition",[4],inconclusive: -11.4%
CCCCCOc1ccc(C2SC(=O)NC2=O)cc1OCC (stereo unspecified),Potency,[1],inactive
same,activation,[5],inconclusive: 22.8%
same,activation,[6],inconclusive: -25.4%
same,Potency,[7]; [15],inactive
same,Potency,[8],"inconclusive: 13.3 µM [rising, partial curve, poor fit]"
same,"viability change, negative = cytotoxic",[9],inconclusive: 3.66%
Oc1ccc2c(c1)OC[C@@H](N1CCC(O)(c3ccc(F)cc3)CC1)[C@H]2O,activation,[1],inconclusive: 14.5%
same,Potency,[5],inactive
same,Potency,[10],"inconclusive: 21.3 µM [rising, single point]"
same,"activity change, negative = inhibition",[7]; [15],inconclusive: 0%
CCCCCOC(=O)CCC,Potency,[1],"inconclusive: 61.1 µM [rising, partial curve, poor fit]"
same,Potency,[11],inactive
same,Potency,[10],inactive
same,Potency,[12],inactive
Cc1ccc(C)o1,Potency,[1],inactive
same,Potency,[5],"inconclusive: 0.124 µM [rising, full curve, poor fit]"
CC(C)(O)CCCC1=CCC(C=O)CC1 (stereo unspecified),activation,[1],inconclusive: 18.6% [at 94.8 µM]
same,Potency,[2],inactive
same,Potency,[6],"inconclusive: 23.3 µM [activator, single point]"
same,Potency,[7]; [15],inactive
CCC(C(=O)O)c1ccc(N2Cc3ccccc3C2=O)cc1 (stereo unspecified),activation,[1],inconclusive: 9.37%
same,Potency,[5],inactive
CCOC(=O)CC(=O)OCC,Potency,[1],inactive
same,Potency,[10],inactive
O=c1[nH]c(=O)n([C@H]2C[C@H](O)[C@@H](CO)O2)cc1C(F)(F)F,Potency,[1],inconclusive: 18.8 µM
same,Potency,[2],inconclusive: 33.5 µM [activator]
same,Potency,[4],"inconclusive: 0.106 µM [inhibitor, full curve]"
same,activation,[6],inconclusive: -13.7%
Nc1ccc(C(=O)OCCCOC(=O)c2ccc(N)cc2)cc1,Potency,[1],inconclusive: 61.1 µM
same,Potency,[11],"inconclusive: 21.9 µM [cytotoxic, single point]"
same,Potency,[4],inactive
same,Potency,[6],"inconclusive: 7.76 µM [rising, partial curve]"
CCC(=O)c1ccc(O)cc1,Potency,[1],inconclusive: 26.6 µM
same,Potency,[11],inactive
same,Potency,[7]; [15],inactive
CC(C)CCCCCOC(=O)CCCCC(=O)OCCCCCC(C)C,Potency,[1],inconclusive: 43.3 µM
same,Potency,[11],"inconclusive: 17.4 µM [cytotoxic, partial curve, poor fit]"
same,Potency,[7]; [15],inactive
C=CC(=O)NCOCCCC,Potency,[1],"inconclusive: 35.4 µM [rising, partial curve] and inconclusive: 21.7 µM [rising, partial curve]"
same,Potency,[5],inactive
same,Potency,[10],"inconclusive: 80 µM [cytotoxic, single point]"
same,"ratio activity, negative = inhibition",[3],inconclusive: 13.7%
same,Potency,[13],"inconclusive: 0.0567 µM [rising, partial curve, poor fit]"
same,"activity change, negative = inhibition",[7]; [15],inconclusive: 11.5%
same,"activity change, negative = inhibition",[7]; at 78.8 µM (top of the series),inactive: 5.28%
same,Potency,[9],inactive
CCCc1cc(=O)[nH]c(=S)[nH]1,Potency,[1],inactive
same,Potency,[5],"inconclusive: 63.6 µM [rising, partial curve, poor fit]"
same,Potency,[10],inactive
CCCCCC(C)=O,activation,[1],inconclusive: -0.199%
same,Potency,[2],inactive
same,Potency,[13],"inconclusive: 0.0445 µM [rising, full curve]"
NS(=O)(=O)c1cc(-c2nn[nH]n2)c(NCc2cccs2)cc1Cl,Potency,[1],active: 10.6 µM
same,Potency,[11],"inconclusive: 4.22 µM [rising, single point]"
same,Potency,[5],inactive
C[C@]12CCC(=O)C=C1[C@@H]1C[C@@H]1[C@H]1[C@@H]3[C@@H]4C[C@@H]4[C@@]4(CCC(=O)O4)[C@@]3(C)CC[C@@H]12,Potency,[1],"inconclusive: 33.5 µM [rising, partial curve, poor fit]"
same,Potency,[5],"inconclusive: 33.5 µM [rising, single point]"
same,"ratio activity, negative = inhibition",[3],inconclusive: 6.45%
same,Potency,[6],"inconclusive: 2.66 µM [fluorescent, full curve, poor fit]"
same,Potency,[7]; [15],inactive
C=CC(=O)CC,Potency,[1],inactive
same,Potency,[5],inactive
same,Potency,[3],inactive
same,"activity change, negative = inhibition",[4],inconclusive: -46.2% [at 81.1 µM]
CCCOc1ccccc1-c1nc2n[nH]nc2c(=O)[nH]1,Potency,[1],inactive
same,activation,[5],inconclusive: -10.2%
same,"viability change, negative = cytotoxic",[10],inconclusive: 2.46% [cytotoxic]
same,"activity change, negative = inhibition",[4],inconclusive: 14.3%
same,Potency,[13],"inconclusive: 3.35 µM [rising, full curve]"
same,Potency,[12],inactive
CCCC(=O)OCC,activation,[1],inconclusive: 22.6%
same,Potency,[5],inactive
same,Potency,[3],inactive
same,Potency,[13],inactive
same,Potency,[12],inactive
same,"activity change, negative = cytotoxicity",[8],inconclusive: -32.4% [cytotoxic]
CCN(CC)CCOc1ccc2c(c1)C(=O)c1cc(OCCN(CC)CC)ccc1-2,activation,[1],inconclusive: 16%
same,Potency,[11],"inconclusive: 13.3 µM [cytotoxic, full curve]"
same,Potency,[10],"inconclusive: 4.22 µM [cytotoxic, single point]"
same,Potency,[3],"inconclusive: 37.6 µM [rising, partial curve, poor fit]"
same,Potency,[4],inconclusive: 33.5 µM
same,Potency,[13],active: 21.1 µM
same,Potency,[14],"inconclusive: 15 µM [activator, single point]"
same,Potency,[12],active: 26.6 µM
same,Potency,[7]; [15],active: 21.3 µM
same,Potency,[8],inconclusive: 10.6 µM [cytotoxic]
same,Potency,[9],"inconclusive: 13.4 µM [cytotoxic, partial curve]"
